Reference: PubChem BioAssay AID485360 (National Center for Advancing Translational Sciences (NCATS), 2010)
The whole screen tested about 230,000 compounds, of which about 1,500 (0.65%) were called active. This list was built around the results that the source calls inconclusive (neither active nor inactive); the mix of calls is not that of the screen. Calls follow the shape of the dose curve; as a rule, active = well fitted inhibition curve with a large enough effect; inconclusive = small, poorly fitted or top-dose-only effect; inactive = no such curve, though single readings can be large or run the other way. Where the call is inconclusive, the potency comes from a doubtful curve fit.

Biological target: Lethal(3)malignant brain tumor-like protein 1 (Homo sapiens) (UniProt Q9Y468)
Chain of UniProt Q9Y468 (Q9Y468 whole entry, looked up): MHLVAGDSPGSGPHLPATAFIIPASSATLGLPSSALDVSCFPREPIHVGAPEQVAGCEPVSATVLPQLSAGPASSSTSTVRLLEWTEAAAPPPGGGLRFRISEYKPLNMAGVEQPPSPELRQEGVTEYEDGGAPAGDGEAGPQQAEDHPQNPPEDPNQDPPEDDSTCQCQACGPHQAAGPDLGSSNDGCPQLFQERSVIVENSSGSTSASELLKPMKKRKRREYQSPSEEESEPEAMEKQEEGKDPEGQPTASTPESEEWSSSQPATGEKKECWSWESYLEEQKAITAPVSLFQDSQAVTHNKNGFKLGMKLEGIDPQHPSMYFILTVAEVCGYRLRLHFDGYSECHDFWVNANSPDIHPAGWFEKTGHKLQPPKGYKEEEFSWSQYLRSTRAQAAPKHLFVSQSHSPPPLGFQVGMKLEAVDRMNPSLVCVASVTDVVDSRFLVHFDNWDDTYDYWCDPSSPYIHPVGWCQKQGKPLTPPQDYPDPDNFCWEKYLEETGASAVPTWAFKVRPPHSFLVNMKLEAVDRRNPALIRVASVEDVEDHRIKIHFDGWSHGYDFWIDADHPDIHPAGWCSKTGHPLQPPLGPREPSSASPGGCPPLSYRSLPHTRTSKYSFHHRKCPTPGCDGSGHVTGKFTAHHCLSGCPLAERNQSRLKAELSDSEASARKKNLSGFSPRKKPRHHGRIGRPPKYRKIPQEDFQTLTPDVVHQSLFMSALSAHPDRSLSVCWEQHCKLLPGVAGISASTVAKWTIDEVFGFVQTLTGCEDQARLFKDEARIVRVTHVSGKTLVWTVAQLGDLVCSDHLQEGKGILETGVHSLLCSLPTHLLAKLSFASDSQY
Experiment: qHTS Assay for the Inhibitors of L3MBTL1; also: nearly all actives have a fitted effect of over 60% in size
Details: AlphaScreen L3MBTL1–H3K9me1 peptide binding; series mostly up to 57.1 µM
Procedure, shortened: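 L3MBTL1 50 nM + b-AHA-H3(1-15)K9me1 75 nM, 30 min RT; compound added, 30 min RT; streptavidin donor/Ni-chelate acceptor beads 10 ug/mL each final, 30 min RT dark; AlphaScreen read.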
Potency is read from the fitted curve at half-maximal effect; tags tell the direction and shape of the fitted curve.

Compound	Potency
O=C(Nc1ccc(Cl)c(S(=O)(=O)N2CCCC2)c1)c1cc(=O)[nH]c2ccccc12	inactive
Cc1ccc(NC(=O)CN2C(=O)c3ccccc3C2=O)c(C)c1	inactive
COc1ccc(Cn2c(=O)[nH]c3cc(C(=O)NCCCN4CCCCCC4)ccc3c2=O)cc1	inactive
Cc1ccc(NCCC(=O)c2cccc([N+](=O)[O-])c2)c(C)c1	inconclusive: 17.8 µM [inhibitor, partial curve]
O=C(CC(c1ccccc1)C1CCCCC1=O)c1ccco1 (stereo unspecified)	inconclusive: 3.16 µM [inhibitor, full curve, poor fit]
O=C(CNCCc1ccc(Cl)cc1Cl)NCc1ccco1	inactive
Cc1ccc2c(c1)c1c(n2CC(O)CN2CCOCC2)CCCC1 (stereo unspecified)	inconclusive: 6.31 µM [inhibitor, single point]
COc1cc(C(=O)N/N=C(\C)c2ccc3c(c2)OCO3)cc(OC)c1OC	inconclusive: 39.8 µM [inhibitor, single point]
O=C(CN1C(=O)C2CC=CCC2C1=O)Nc1nc2ccc(F)cc2s1 (stereo unspecified)	inconclusive: 10 µM [inhibitor, partial curve]
CCCCn1c(SCC(=O)c2ccc3c(c2)NC(=O)CO3)nc2cc(S(N)(=O)=O)ccc21	inconclusive: 0.447 µM [inhibitor, full curve, poor fit]
CC(C)(C)C(=O)NC(=S)Nc1ccccc1N1CCCC1	inconclusive: 22.4 µM [inhibitor, partial curve]
C/C(=N\NC(=O)C1=NNC(=O)C1C)c1cccs1 (stereo unspecified)	inactive
C=CCOc1ccc(C(=O)N(Cc2ccc(N(C)C)cc2)C2CCS(=O)(=O)C2)cc1 (stereo unspecified)	inconclusive: 35.5 µM [inhibitor, single point]
CN1CCN(C(=S)c2ccc(-c3cc(Cl)ccc3Cl)o2)CC1	inconclusive: 7.94 µM [inhibitor, partial curve]
O=C(NN=C1CCCC1)c1ccccc1OCCOc1ccccc1	inconclusive: 8.91 µM [inhibitor, single point]
Cc1cc(C)cc(C(=O)NC(CC(N)=O)c2ccc(NCC3CC3)c([N+](=O)[O-])c2)c1 (stereo unspecified)	inconclusive: 3.98 µM [inhibitor, single point]
C(=N\Nc1nc2ccccc2[nH]1)/c1cccc2cccnc12	inconclusive: 2.24 µM [inhibitor, partial curve]
Cc1cc(C)n(-c2ccc3cccc(NS(C)(=O)=O)c3n2)n1	inactive
Cc1cccc(-c2oc3ccccc3c2-c2ccc3c(c2)OCO3)c1	inconclusive: 6.31 µM [inhibitor, single point]
CNC(=S)N1N=C(c2ccc(Br)cc2)CC1c1ccc(N(C)C)cc1 (stereo unspecified)	inconclusive: 31.6 µM [inhibitor, partial curve]
NC(=NCc1ccc2c(c1)OCO2)NC(=O)c1ccccc1	inconclusive: 28.2 µM [inhibitor, partial curve]
Cc1nc2nc(SCC(=O)N3CCOCC3)nn2c(C)c1Cc1c(F)cccc1Cl	inactive
CCc1ccc(/C=C/C(=O)c2ccc(N3CCOCC3)cc2)cc1	inconclusive: 0.631 µM [inhibitor, partial curve, poor fit]

Compound	Potency
Cc1cccc(N2C(=O)CCC2=O)c1	inconclusive: 10 µM [inhibitor, single point]
COCCN(Cc1cc2cc3c(cc2nc1Cl)OCO3)C(=O)Nc1ccc(F)cc1	inconclusive: 5.62 µM [inhibitor, single point]
CC(=O)OCCCNc1cc(SCc2ccco2)c2nonc2c1[N+](=O)[O-]	inconclusive: 10 µM [inhibitor, partial curve]
Cc1ccc2nc(NC(=S)NC(=O)c3cccs3)sc2c1	inactive
CCNC(=S)NN=C1c2ccccc2-c2ccccc21	inconclusive: 3.55 µM [inhibitor, partial curve]
COc1ccc(-n2nc(C(=O)NCC(=O)NCC3CCCO3)c3ccccc3c2=O)c(OC)c1 (stereo unspecified)	inactive
CC1=NN(c2ccccc2)C(=O)/C1=C\c1cc(C)n(C)c1C	inconclusive: 3.55 µM [inhibitor, partial curve]
Cc1cccc(-n2ncc3c(N4CCCC4)ncnc32)c1	inactive
O=C(OCc1nnc(-c2ccccc2)o1)c1ccc([N+](=O)[O-])o1	inconclusive: 35.5 µM [inhibitor, single point]
O=C(NCCc1ccc(Cl)cc1)c1ccc2nc[nH]c2c1	inconclusive: 44.7 µM [inhibitor, partial curve, poor fit]
CCOC(=O)c1cnc(-n2[nH]c(C)c(Cc3ccccc3)c2=O)[nH]c1=O	active: 2.82 µM
COC(=O)C1=C(C)N(Cc2ccccc2)C(=NCCc2c[nH]c3ccccc23)N[C@H]1c1cccc(C(F)(F)F)c1	inactive
S=c1[nH]nc(-c2cc(-c3ccco3)[nH]n2)n1-c1ccccc1Cl	inconclusive: 31.6 µM [inhibitor, partial curve]
N#Cc1nc(COc2ccc(F)cc2)oc1N1CCN(Cc2ccccc2)CC1	inconclusive: 31.6 µM [inhibitor, single point]
O=S(=O)(c1ccccc1)c1nc(-c2ccc(Cl)cc2)oc1NCCCN1CCOCC1	inactive
N#CCCN(Cc1cccnc1)C(=S)NC1CC2C=CC1C2 (stereo unspecified)	inactive
CS(=O)(=O)Nc1ccc(C(=O)NCCSCc2ccco2)cc1	inconclusive: 6.31 µM [inhibitor, single point]
O=S(=O)(Nc1nc2ccccc2nc1N1CCN(CCO)CC1)c1cc(F)ccc1F	inactive
CCc1ccc(NSc2ccccc2[N+](=O)[O-])cc1	inconclusive: 15.8 µM [inhibitor, partial curve]
CCN(CC)S(=O)(=O)c1ccc(N/N=C/c2ccc(O)cc2O)nc1	inconclusive: 8.91 µM [inhibitor, partial curve]
CC1CCN(Cc2c(O)ccc3c2O/C(=C\c2ccco2)C3=O)CC1	active: 10 µM
O=C1/C(=C\c2ccco2)CCC/C1=C\c1ccco1	active: 3.55 µM
O=C(Nc1ccc(N2CCCCC2)cc1)c1ccccc1	inactive
